Measured values published in PubChem BioAssay AID624418 (National Center for Advancing Translational Sciences (NCATS), 2012).
Out of some 410,000 compounds screened, about 530 (0.13%) were called active. Inconclusive means that the source gave no clear call. Such entries were picked first, then a sample of the others. Calls follow the shape of the dose curve; as a rule, active = well fitted inhibition curve with a large enough effect; inconclusive = small, poorly fitted or top-dose-only effect, or another doubt; inactive = no such curve, though single readings can be large or run the other way. Potencies beside an inconclusive call are fits to weak or partial responses and may not hold up.

Test: qHTS of GLP-1 Receptor Inverse Agonists: Cytotox Screen
Settings: HEK293 cAMP-luciferase reporter cells, luminescence, 24 h; series mostly up to 38.3 µM
Procedure, shortened: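 To flag toxic compounds, the library was rerun on cells for 24 hr at 37 deg C and 5% CO2. Viability-linked luminescence was captured 12 min after adding luciferase detection reagent.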
Potency is read from the fitted curve at half-maximal effect.

SMILES	Potency
COc1cccc(-c2nnn(CC(=O)N(C3CCCCC3)C3CCS(=O)(=O)C3)n2)c1 (stereo not given)	inconclusive: 2 µM [inhibitor, full curve, poor fit]
O=C(CCNS(=O)(=O)c1cccc2nonc12)Nc1ccc(Cl)cc1	inconclusive: 2 µM [inhibitor, partial curve, poor fit]
COC(=O)c1cc(C(=O)N2CCN(C(=O)c3ccco3)CC2)cc([N+](=O)[O-])c1	inactive
Fc1ccc(-c2noc3ncnc(NCC4CCN(Cc5ccc(Cl)cc5)CC4)c23)cc1	inconclusive: 7.94 µM [inhibitor, partial curve, poor fit]
COc1cc(NC(=S)N2CCN(c3ccccn3)CC2)cc(OC)c1	inactive
C=CCn1c(-c2c[nH]c3ccccc23)n[nH]c1=S	inactive
CCN1CCN(S(=O)(=O)c2cc(OCC(=O)NC3CCCCC3)c(C)cc2Cl)CC1	inactive
Cc1ccc2cc3c(N)nn(C(=O)c4cccc(F)c4)c3nc2c1	inactive
O=C(Nc1cccc(Br)c1)c1ccc(Cl)c(S(=O)(=O)N2CCOCC2)c1	inconclusive: 1 µM [inhibitor, full curve, poor fit]
C#CCOCCOCCOCCNc1nc(N2CCOCC2)nc(N2CCN(C(=O)[C@H](CO)n3cc([C@@H](N)C(C)C)nn3)CC2)n1	inactive
Cc1cccc2c1Sc1ccc(Cl)cc1CC2N1CCNCC1 (stereo not given)	inconclusive: 28.2 µM [inhibitor, single point]
COc1cc(/C=C/c2[nH]c(=O)[nH]c(=O)c2[N+](=O)[O-])cc([N+](=O)[O-])c1O	inconclusive: 20 µM [inhibitor, single point]
CCc1ccc(-n2cccc2/C=C2/C(=N)N3C(=NC2=O)SN=C3S(C)(=O)=O)cc1	inconclusive: 5.62 µM [inhibitor, full curve, poor fit]
CCCCn1c(N)c(C(=S)NC(=O)CC(C)(C)C)c(=O)n(C)c1=O	inconclusive: 14.1 µM [inhibitor, partial curve, poor fit]
O=C(O)CCn1c(SCc2cccc3ccccc23)nc2ccccc21	inconclusive: 20 µM [inhibitor, single point]
CCOc1ccc(-n2c(-c3ccccc3)c[nH]c2=S)cc1	inconclusive: 1 µM [inhibitor, full curve, poor fit]
Cc1ccc(S(=O)(=O)N(C)C)cc1NC(=S)NC(C)CCCC(C)C (stereo not given)	inconclusive: 22.4 µM [inhibitor, single point]
CCc1ccc(-c2cc(C(=O)N3N=C(C(F)F)CC3(O)C(F)F)c3ccccc3n2)cc1 (stereo not given)	inconclusive: 22.4 µM [inhibitor, single point]
Cc1ccc(CNCc2c(C(=O)O)n(Cc3ccc(C)cc3)c3cc(C)ccc23)cc1	inconclusive: 28.2 µM [inhibitor, single point]
Cc1ccc(-c2nc3cccnc3o2)cc1NC(=O)COc1ccc(C(C)(C)C)cc1	inconclusive: 14.1 µM [inhibitor, single point]
CCCCNC(=O)CN1CCN(Cc2ccc3cc(OC)ccc3c2)CC1	inactive
COC(=O)C1N[C@@H]([C@@H](NC(=O)COc2ccccc2)C(=O)Nc2ccc(OC)cc2)SC1(C)C (stereo not given in full)	inconclusive: 0.501 µM [inhibitor, full curve, poor fit]

SMILES	Potency
COc1cc(NC(=O)Nc2ccccc2)c(OC)cc1NC(=O)CN1CCCCC1	inconclusive: 11.2 µM [inhibitor, partial curve, poor fit]
O=S(=O)(NCC(Nc1ccc(Cl)cc1)c1ccccc1)c1ccccc1 (stereo not given)	inconclusive: 22.4 µM [inhibitor, single point]
COC(=O)/C=C/COc1ccccc1[N+](=O)[O-]	inactive
CC[n+]1c(/C=C/c2ccc(OC(C)=O)c(OC)c2)ccc2ccccc21	inconclusive: 11.2 µM [inhibitor, partial curve, poor fit]
O=C(NC(=S)NNC(=O)c1cccs1)c1ccccc1	inactive
CCCCCCCCCn1c2c(c(=N)c3c1CCC3)CCC2	inconclusive: 6.31 µM [inhibitor, partial curve, poor fit]
Cc1ccc2c(CC(=O)NCc3ccco3)coc2c1C	inconclusive: 1.41 µM [inhibitor, full curve]
O=C(c1nc(-c2ccccc2)n(-c2ccccc2)n1)N1CCCCCC1	inactive
CCOC(=O)c1c(C)n(O)c2ccc(Cl)cc2c1=O	inactive
CCCOc1ccc(C(=O)Nc2nc(C)c(Cc3ccc4c(c3)OCO4)s2)cc1	inconclusive: 12.6 µM [inhibitor, single point]
OC1(c2cccc(C(F)(F)F)c2)CCN(c2ncnc3c2[nH]c2ccccc23)CC1	inconclusive: 31.6 µM [inhibitor, single point]
Cc1ccc(C(NC(=O)C2CCN(CCOc3ccc(Cl)cc3Cl)CC2)c2ccccn2)cc1 (stereo not given)	inconclusive: 28.2 µM [inhibitor, single point]
Cc1ccc(-n2c(CNc3cccc(Cl)c3)n[nH]c2=S)cc1	inactive
O=C(Cn1c(=O)c2cccn2c2ccc(F)cc21)N1CCN(c2ccc(F)cc2)CC1	inconclusive: 28.2 µM [inhibitor, single point]
CCOC(=O)c1c(NC(=S)N2CCN(C)CC2)sc(C)c1-c1ccccc1	inconclusive: 22.4 µM [inhibitor, single point]
O=[N+]([O-])c1cc(Cl)ccc1Sc1cccc2cccnc12	inactive
COc1cc(C(=O)N2CCN(Cc3ccc4c(c3)OCO4)CC2)cc(OC)c1OC	inconclusive: 17.8 µM [inhibitor, single point]
O=C(OCn1ncc(Br)c(Br)c1=O)c1ccccc1Cl	inconclusive: 6.31 µM [inhibitor, partial curve, poor fit]
COc1ccc(/C=N/n2c(-c3ccccc3)n[nH]c2=S)cc1	inconclusive: 28.2 µM [inhibitor, single point]
O=C1C2=C(NC(=S)NC2c2ccc(Cl)cc2)NC(c2ccc(Cl)cc2)N1c1ccc(Cl)cc1 (stereo not given)	inconclusive: 15.8 µM [inhibitor, partial curve, poor fit]
Cc1cccc(C2=NN(c3ccc(Br)cc3)[C@@H](C(=O)N3CCOC3=O)[C@@H]2c2ccc(Cl)cc2)c1	inactive
CC(C)n1c(CSCc2ccc(Cl)cc2Cl)n[nH]c1=S	inconclusive: 5.01 µM [inhibitor, single point]

SMILES	Potency
CC(C)CCN1C(N(C)C)=NC[C@@H]1C	inconclusive: 31.6 µM [inhibitor, single point]
O=C(c1ccccc1)N1N=C(C(F)(F)F)CC1(O)c1ccccc1O (stereo not given)	inconclusive: 6.31 µM [inhibitor, partial curve]
Cc1ccc(S(=O)(=O)c2c(C)nn(C(C)(C)C)c2OC(=O)c2cccs2)cc1	inconclusive: 15.8 µM [inhibitor, partial curve, poor fit]
c1ccc(-c2csc(Nc3cccnc3)n2)nc1	inactive
O=C(C1CCN(CCCc2ccccc2)CC1)N(CCc1ccccc1)Cc1ccccc1	inconclusive: 11.2 µM [inhibitor, single point]
CCN(CC)c1ccc2cc(C(=O)c3cccs3)c(=O)oc2c1	inactive
Cc1noc(NS(=O)(=O)c2ccc(N/C=C/C(=O)c3ccncc3)cc2)c1C	inconclusive: 11.2 µM [inhibitor, single point]
COc1ccc(C(=O)NCc2cc(C)nc3ccccc23)cc1	inconclusive: 10 µM [inhibitor, single point]
Cc1cc(/C=N/Nc2ncnc(N)c2[N+](=O)[O-])c(C)n1-c1ccccc1	inconclusive: 6.31 µM [inhibitor, partial curve, poor fit]
CCC1=Nc2cc(C(=O)NCc3cccnc3)ccc2Sc2ccc(C)cc21	inconclusive: 7.94 µM [inhibitor, partial curve, poor fit]
O=C1C(=O)N(c2ccccc2)C(c2ccccc2)C1c1ccccc1 (stereo not given)	inconclusive: 31.6 µM [inhibitor, single point]
CC1(C)Cc2ccccc2C(NNC(=O)c2ccccn2)=N1	inconclusive: 6.31 µM [inhibitor, partial curve, poor fit]
C(=NN=C1c2ccccc2-c2ccccc21)c1c[nH]c2ccccc12	inconclusive: 10 µM [inhibitor, partial curve, poor fit]
COc1ccccc1OC(C)C(=O)Nc1nc(-c2ccc(S(=O)(=O)N3CCOCC3)cc2)cs1 (stereo not given)	inactive
C=CCc1ccccc1OCC(O)CN1CCN(c2ccccc2F)CC1 (stereo not given)	inactive
Cc1ccc(NC(=O)c2cc(S(=O)(=O)Nc3ccc(C)cc3)cs2)cc1	inconclusive: 28.2 µM [inhibitor, single point]
O=C(/C=C/c1cc([N+](=O)[O-])ccc1OC(F)F)NCc1ccc(F)cc1	inconclusive: 28.2 µM [inhibitor, single point]
CCCCCCCCCn1ccc(=N)cc1	inconclusive: 1.12 µM [inhibitor, full curve, poor fit]
O=C(COc1ccccc1F)Nc1nnc(C2CCCC2)s1	inconclusive: 1 µM [inhibitor, full curve, poor fit]
O=C(NC(=S)N(CCO)Cc1ccccc1)c1cc(Br)ccc1Cl	inconclusive: 7.08 µM [inhibitor, partial curve, poor fit]
COc1ccc(NC(=O)CN2C(=O)C3(SCC(=O)N3c3cccc(OC)c3)c3ccccc32)cc1 (stereo not given)	inactive
